In PubChem BioAssay AID488969 (Vanderbilt High Throughput Screening Facility, 2010):
Over roughly 110,000 compounds, “z-score” has its median near -0.1; the highest 2% begin near 2. The list shows a part of the results. Activity calls are given as the source filed them.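 How the source made its calls: active means z-score in the third read window above 3 or below -3; inactive means the rest.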

target: Metabotropic glutamate receptor 8 (Rattus norvegicus) (UniProt P70579); assay: mGluR8 Gi/Go-coupled signaling modulation – cell-based, rat, thallium flux, HTS, primary screen (AID 488969); conditions: HEK293 rat mGluR8, GIRK (G protein-gated inwardly rectifying potassium channel) thallium flux, FluoZin2; at 10 µM; stronger effect = higher value; submaximal glutamate (EC20) added with thallium
Chain of UniProt P70579 (P70579 whole entry, looked up): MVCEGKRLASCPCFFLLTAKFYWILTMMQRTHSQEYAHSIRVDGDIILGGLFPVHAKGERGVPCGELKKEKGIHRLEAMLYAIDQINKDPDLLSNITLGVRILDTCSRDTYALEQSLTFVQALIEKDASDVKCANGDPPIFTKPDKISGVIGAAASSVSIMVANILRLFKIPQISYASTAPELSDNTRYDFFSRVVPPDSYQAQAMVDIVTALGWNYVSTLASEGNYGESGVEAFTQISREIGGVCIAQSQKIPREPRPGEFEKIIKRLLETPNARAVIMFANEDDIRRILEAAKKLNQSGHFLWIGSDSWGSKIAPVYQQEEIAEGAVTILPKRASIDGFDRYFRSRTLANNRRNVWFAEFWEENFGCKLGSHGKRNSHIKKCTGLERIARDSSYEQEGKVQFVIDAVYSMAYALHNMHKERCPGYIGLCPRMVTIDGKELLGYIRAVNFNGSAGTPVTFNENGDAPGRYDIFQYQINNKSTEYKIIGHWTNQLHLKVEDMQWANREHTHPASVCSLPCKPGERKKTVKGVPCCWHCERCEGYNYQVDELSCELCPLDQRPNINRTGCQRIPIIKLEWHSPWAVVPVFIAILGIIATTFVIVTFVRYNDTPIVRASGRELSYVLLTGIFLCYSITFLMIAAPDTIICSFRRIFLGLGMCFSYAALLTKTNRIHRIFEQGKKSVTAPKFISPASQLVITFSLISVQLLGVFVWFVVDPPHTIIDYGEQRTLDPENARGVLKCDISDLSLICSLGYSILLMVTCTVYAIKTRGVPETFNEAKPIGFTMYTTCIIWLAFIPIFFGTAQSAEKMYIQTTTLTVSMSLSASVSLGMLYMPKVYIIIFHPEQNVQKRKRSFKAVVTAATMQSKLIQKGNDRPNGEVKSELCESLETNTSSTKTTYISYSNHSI

First: COC(=O)CC1C(=O)NCCN1C(=S)Nc1cc(C)cc(C)c1 (stereo not given)
Second: CCOC(=O)c1c(NC(C)=O)sc2c1CCCNC2=O
The z-score of the first is higher: -0.0164 for the first, -1.01 for the second.

Compared with `O=C(CN1C(=O)c2cccc3cccc1c23)Nc1ccc2c(c1)OCO2`, `Cc1noc(C)c1COc1ccc(C(=O)OCC(=O)Nc2ccc3c(c2)OCO3)cc1` is higher in z-score: -0.349 for the first, 0.261 for the second.

Going from `O=C(N/N=C/c1ccccc1Cl)c1ccc(F)cc1` to `O=C(N/N=C\c1ccc(Sc2ccccn2)o1)c1cccc(Br)c1`, the z-score rises from -0.645 to 1.77.

Compared with `CCc1ccc(N2C(=O)CC(NNc3nc4ccccc4s3)C2=O)cc1` (stereo not given), `Cc1ccccc1C(=O)Nc1c2c(nc3ccccc13)CCCC2` is lower in z-score: 0.452 for the first, -0.429 for the second.

Going from `O=S(=O)(NCCSc1ccc(Cl)cc1)c1ccc(F)cc1` to `O=C(NCCc1ccc(O)cc1)c1ccc(Cl)cc1`, the z-score falls from 0.0224 to -0.151.

Compared with `CCC1=NC(c2ccccc2)N(O)C1(C)C` (stereo not given), `CCOC(=O)C1=C(c2ccccc2)N2CCN=C2S1` is higher in z-score: -0.0296 for the first, 0.217 for the second.

First: Cc1cccc(NC(=O)CSc2nnc(CNC(=O)c3ccc(S(=O)(=O)N(C)C)cc3)n2-c2cccc(C)c2)c1
Second: Cc1ccc(-n2c(SCC(=O)Nc3cccc(S(N)(=O)=O)c3)nc3ccccc32)cc1
The z-score of the first is lower: -0.337 for the first, 0.106 for the second.

Compared with `O=C(CO/N=C/c1ccccc1O)NNC(=O)c1ccccc1Cl`, `O=C(COc1ccccc1Cl)NC(=S)Nc1cccc(NC(=O)c2ccccc2Cl)c1` is higher in z-score: -0.0285 for the first, 0.0174 for the second.

Compared with `CNC(=O)c1nnc(Cc2ccc(Cl)cc2)o1`, `CN(C)C(=O)c1cc(F)ccc1Sc1cc(Cl)ccc1Cl` is lower in z-score: 1.21 for the first, -0.409 for the second.

Going from `CC(C)OC(=O)CSc1nnc(-c2cnccn2)n1-c1ccccc1` to `COc1cccc(-c2nnc(SCc3nc4ccccc4[nH]3)n2N)c1`, the z-score rises from -0.352 to -0.28.

Going from `Cc1ccc(C(=O)Oc2ccccc2N2C(=O)C3CCC(C)CC3C2=O)cc1` (stereo not given) to `CCOC(=O)C(C)Oc1cccc2c(=O)n(CC(=O)N3CCc4ccccc43)ccc12` (stereo not given), the z-score falls from -0.265 to -0.345.

Going from `Cc1cccc(NC(=O)COc2ccc(Br)cc2/C=N/O)c1` to `Cc1ccnc(NS(=O)(=O)c2ccc(NC(=O)Cc3cccs3)cc2)n1`, the z-score falls from 1.86 to 0.142.

Going from `CC1CCN(C(=O)CSc2nc3c(cnn3-c3ccccc3)c(=O)[nH]2)CC1` to `COc1ccc2nc(SCC(=O)NC3CCCc4ccccc43)[nH]c2c1` (stereo not given), the z-score rises from -0.345 to 0.0427.

Going from `Cc1occc1C(=O)NN1C(=O)C2C3CCC(O3)C2C1=O` (stereo not given) to `COc1ccc(OC)c(NC(=O)C2CCCCC2C(=O)O)c1` (stereo not given), the z-score rises from 0.0433 to 0.311.

Compared with `CC(C)COC(=O)C(C#N)c1nc2ccccc2nc1N1CCN(Cc2ccccc2)CC1` (stereo not given), `CC(C)n1c(N2CCN(C(=O)c3cccs3)CC2)nc2ccccc21` is lower in z-score: -0.213 for the first, -0.352 for the second.

First: Cc1cc(C)n2nc(C(=O)Nc3ccc4c(c3)OCO4)cc2n1
Second: CCSc1nc2c(sc3nc(C)cc(C)c32)c(=O)[nH]1
The z-score of the first is higher: -0.0466 for the first, -1.43 for the second.

Going from `CCOC(=O)c1oc2cccc(OC(C)=O)c2c1C` to `CCOc1ccc2[nH]cc(C(=O)O)c(=O)c2c1`, the z-score rises from -0.447 to 0.172.

First: CCOc1ccc(-n2c(N)c(C(=O)NCc3ccco3)sc2=S)cc1
Second: CCOc1ccc(NC(=O)c2ccc(C#CC(C)(C)O)cc2)cc1
The z-score of the first is higher: 0.944 for the first, 0.116 for the second.

First: CCCCCCn1c(CN2CCCCC2)nc2c1c(=O)n(C)c(=O)n2C
Second: CCN1CCN(Cc2cc(=O)oc3ccc(Cl)cc23)CC1
The z-score of the first is higher: -0.478 for the first, -0.503 for the second.

Going from `CC(C)c1ccc(C2NC(=S)NC3=C2C(=O)CC(C)(C)C3)cc1` (stereo not given) to `C=CCn1c(N)c(C(=O)OC(C)CC)c2nc3ccccc3nc21` (stereo not given), the z-score falls from -0.0107 to -0.622.

Going from `COc1ccc(F)c(C2C(C#N)=C(N)Oc3n[nH]c(C(C)(C)C)c32)c1` (stereo not given) to `COc1cc(C2C(C(N)=O)=C(C)Nc3nc(CCCO)nn32)cc(OC)c1OC` (stereo not given), the z-score rises from -0.303 to 0.279.

Compared with `COn1c(SCC(N)=O)nc2ccccc2c1=O`, `CSc1nc(-c2ccccc2)nn1S(=O)(=O)c1ccccc1` is lower in z-score: 0.473 for the first, -0.16 for the second.

Going from `CS(=O)(=O)N1CCN(c2ccccc2NC(=O)c2cccnc2Cl)CC1` to `CC(=O)N1CCC(N(CCN2CCOCC2)C(=S)Nc2ccccc2C)CC1`, the z-score rises from -0.117 to -0.103.

Compared with `Cc1nnc(SCCN2CCOCC2)c2nn(-c3ccccc3F)c(C)c12`, `N#Cc1c(SCc2nc3ccccc3[nH]2)nc2c(c1C(F)(F)F)CCC2` is lower in z-score: -0.0917 for the first, -1.13 for the second.

First: O=C(CCCSc1nc(-c2ccco2)cc(C(F)(F)F)n1)NCC1CCCO1 (stereo not given)
Second: FC(F)(F)c1nc2ccccc2nc1N/N=C/c1ccc(Cl)cc1
The z-score of the first is lower: -0.496 for the first, -0.227 for the second.

First: Cc1ccc(C(=O)N/C(=C\c2ccccc2)C(=O)OCc2ccccc2)cc1
Second: COC(=O)c1ccc(NC(=S)NCCc2ccccc2)cc1
The z-score of the first is lower: -0.52 for the first, 0.0302 for the second.

First: COc1ccc(-c2nc3ccncc3[nH]2)cc1OC
Second: CCS(=O)(=O)N1CCN(CC2CC3C=CC2C3)CC1 (stereo not given)
The z-score of the first is lower: -0.103 for the first, -0.0203 for the second.

`Clc1ccc2[nH]c3c(NCC4CCCO4)ncnc3c2c1` (stereo not given) was tested, and the z-score was active: -3.05.
